Reference: the supplement of paper PMC3334620
The full ranking holds about 33,000 sequences; the median of “E-score (-0.5 to 0.5)” is about -0.021, and the highest 2% start at about 0.32. Some of the results follow.

target: T1, Zap1 (UniProt P47043); experiment: PBM E-score (8-mer binding enrichment) (E-score (-0.5 to 0.5)); higher = stronger / more preferred TF binding; most listed sequences are background and not binding sites; conditions: protein concentration: 200 nM; construct: GST-full length
T1 sequence: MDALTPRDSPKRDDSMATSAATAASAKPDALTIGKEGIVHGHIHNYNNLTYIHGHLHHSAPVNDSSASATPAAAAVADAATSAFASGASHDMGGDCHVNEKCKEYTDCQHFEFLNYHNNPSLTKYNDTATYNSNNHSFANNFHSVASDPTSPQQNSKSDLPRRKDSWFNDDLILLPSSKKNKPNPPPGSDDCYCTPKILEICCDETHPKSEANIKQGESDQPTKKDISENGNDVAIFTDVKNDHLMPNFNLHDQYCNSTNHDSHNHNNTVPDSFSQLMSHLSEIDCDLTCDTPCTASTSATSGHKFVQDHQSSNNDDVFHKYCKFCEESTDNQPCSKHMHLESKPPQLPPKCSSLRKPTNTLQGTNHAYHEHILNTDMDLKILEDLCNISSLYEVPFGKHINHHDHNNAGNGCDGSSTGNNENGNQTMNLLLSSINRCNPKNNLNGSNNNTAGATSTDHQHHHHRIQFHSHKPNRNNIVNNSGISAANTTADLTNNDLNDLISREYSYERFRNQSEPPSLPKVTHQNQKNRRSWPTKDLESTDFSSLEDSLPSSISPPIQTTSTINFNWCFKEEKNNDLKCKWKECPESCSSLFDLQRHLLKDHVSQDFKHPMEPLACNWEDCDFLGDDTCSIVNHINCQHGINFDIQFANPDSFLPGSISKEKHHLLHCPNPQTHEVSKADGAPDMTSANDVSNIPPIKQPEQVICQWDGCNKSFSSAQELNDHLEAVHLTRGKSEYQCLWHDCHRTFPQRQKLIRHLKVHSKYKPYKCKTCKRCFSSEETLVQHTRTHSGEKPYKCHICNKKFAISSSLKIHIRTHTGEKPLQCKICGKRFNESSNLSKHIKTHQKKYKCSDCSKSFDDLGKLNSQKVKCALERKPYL
Method in brief: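 PURExpress in vitro transcription/translation supplied GST-tagged yeast transcription factors, either full-length or DNA-binding domain. Applied at about 100-200 nM to universal all-10-mer Agilent arrays double-stranded by primer extension, the bound protein was detected with fluorescent anti-GST. E-scores, modified Wilcoxon-Mann-Whitney statistics, were given by the Universal PBM Analysis Suite to ungapped eight-base words pooled with their reverse complements after masliner normalisation.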

Sequence	PBM E-score
ACTTATGC	0.00488
GGCGAACC	-0.135
CAAAACTC	0.0001
CGCCGTAG	-0.198
TTAACAAA	0.124
ACCAATAC	0.146
AGAGAGCA	-0.215
CGATACAA	0.0578
CACAAATA	0.233
GCGTCGCA	-0.26
AGGGTGCG	0.0755
CGGGTCCA	-0.035
CCGCGCGG	0.332
ACAATACA	0.0203
AGCCAACG	-0.0542
GACATATC	0.00746
AGCGAACT	-0.102
CCTCGAGC	0.0178
CAGAACAA	0.298
CCAGGGCA	-0.123
CCCAGGAG	0.012
ACGGGATA	0.0668
AGTACTTA	0.0107
ATAAGGTC	0.184
CCCTCGAA	-0.0507

Sequence	PBM E-score
GCAACTTA	0.104
GTGCTAAA	-0.0213
ACCACTAC	0.182
CATAGCCG	-0.0532
AGTTCGAC	-0.0259
CGTGCACA	-0.136
AATGACCA	0.334
TCGGAAAA	0.0133
GCTCCGCA	-0.272
ATGCATTC	-0.0449
CCATACCG	-0.0734
ATAGGGCA	-0.0304
AACAGCAT	-0.0619
GCATGACC	0.234
GACCGTCA	0.062
TATGAATA	0.0234
AGTACCTA	0.299
CACTTTCA	0.109
AGTTAACA	0.117
GTAAACAC	0.0841
AGCCTTGG	-0.208
CAACCAGA	0.0688
CCCAGAAG	0.00556
AGAATACT	0.0414
AACTAGTA	0.145

Sequence	PBM E-score
AAGTGTCC	-0.108
CAACTAAA	0.106
AACGAGTT	-0.11
GCCATCAC	-0.0497
CCCATTGA	0.014
GCACTCTA	0.159
ATGTATGA	0.118
CGAGGCTA	0.178
CAAGTAAC	0.284
GCAAACAA	0.142
AGTCAAAC	-0.0511
CTCGTTAA	0.00164
AATTCGGA	0.0199
CAACGTTG	-0.00367
GGCGTCCA	-0.125
ATCTTTGC	0.0208
ACGTTTAA	0.1
GCTTTACA	-0.0896
ACATAGGG	0.00531
CGGATCAG	-0.141
GATAAACA	0.0546
ACGGGTAT	0.312
CAACATCG	-0.0913
GGCAACTA	-0.0638
CAGGCGCC	-0.188

Sequence	PBM E-score
AAGCGCAC	-0.156
GCCATAAC	0.12
CTTGATAC	-0.00663
GAGCACTC	-0.13
GGACACCA	0.0222
ATGTTAAG	-0.0536
GAAATCCC	0.0594
ACGAGCTA	-0.0843
GGTCTGGA	-0.134
ATCGCCAC	0.093
AGGATTAC	0.0553
CTTCCACA	-0.0978
CCTAAAAC	0.181
TACTCATA	-0.113
AACGAAAC	0.117
GGCGTCAC	-0.129
GGGCCCTA	0.0474
AAACTTTG	0.112
AACATCTC	-0.131
GCTCCAAC	-0.045
GTAACCTA	0.458
ACGATCAG	0.044
CTGAGCCA	-0.0359
TGAAAGCA	0.0751
TACAGGTA	0.213

Sequence	PBM E-score
ACGCTCCT	-0.261
CTGTCTCC	-0.253
AAATCACT	0.0213
TGCTGAAA	-0.0931
AGCGCATC	-0.3
CATCGCGG	0.147
ATGCCATG	-0.107
GGCGCCCC	-0.15
CGAGACGA	-0.26
ATTAGGCA	-0.131
AGGAATAT	-0.00164
CCTATCAC	0.0121
GCTTGCAC	-0.181
AAACCGGC	0.185
GGCCACCC	0.241
CCGGCTAG	-0.261
CAGGTTGC	0.0972
GTGTATTA	0.248
GGGAGAAA	0.0239
AGTGCACT	0.0393
ACTGAACT	-0.00112
AGGCTGCA	-0.0385
GACCTATA	0.295
CGCAGCCC	-0.0497
GGCCGACA	-0.00342

Sequence	PBM E-score
GGACAGCC	-0.0735
AGCGGCCG	0.0255
CGGCTTCC	-0.239
AACCCTCA	0.383
GCGCTAGC	-0.275
CACATTGG	-0.00859
CGGCTGAA	-0.0251
ATCAATCA	0.203
CCGTGTGC	-0.204
ATCTGGAG	-0.00727
TAGGTTGA	0.101
CCTTCGGC	-0.0312
GCAAGACC	0.0765
CGTCCTAC	-0.193
TCCTTACA	0.112
AGTTACAA	0.193
AGACCAGG	-0.029
ATAGTAAT	0.149
CCGTACAC	0.141
CAAGGGGG	-0.123
ATCTGGAA	-0.00838
GCCACGCA	-0.113
AAGTGTGA	-0.239
AATGCTGC	-0.0899
CTGTACCA	-0.125

Sequence	PBM E-score
CACGCGTA	0.0393
ATGACGTG	-0.161
GACCACGA	0.115
ACGAAGCC	-0.0778
TCTATGCA	-0.0844
ACACTAAG	0.102
GTGCTAGA	-0.205
GGAAAAAC	0.178
GGCATTCA	-0.219
GCAGTGAC	-0.018
GACGGCGC	-0.28
AACTAGAT	0.0713
AGCGCAAA	-0.172
GAACATCC	0.00204
CCCATACC	0.223
CGTCAAAC	-0.0166
AACCGCTA	0.23
ATCAATAA	0.184
CGCTGCGC	-0.373
AAGTCGAA	-0.22
TCAGTCCA	-0.309
CTTTGAAA	0.129
GCTGTCCA	0.00525
AACCAATT	0.213
AAGCTAGT	-0.146

Sequence	PBM E-score
CCAGTTCC	0.0998
TATAGCCA	-0.028
CGGCAGTC	-0.101
CGGCGGCA	-0.236
CGCATCAC	0.12
ATACGTTG	-0.168
TCCGGCCA	-0.212
ATCTCGCC	-0.29
AAAGATCT	-0.0307
TACTTATA	0.0726
TAATTTGA	0.0906
CATGTCGA	-0.0799
AAACCTTT	0.263
ACTAGTGG	0.113
AGTCTGTC	-0.0794
AGGTGTGA	-0.0666
AGAGACGG	-0.037
AAGAGGGA	-0.199
ATAGCAAC	-0.0476
TCGCCGCA	0.078
CGACGCAA	-0.063
AACTTCTA	-0.119
ACAGAGAG	-0.27
TAATACCA	0.137
AGCGTCGG	-0.0562

Sequence	PBM E-score
CCAGTTTA	0.073
CGCAGGCG	-0.228
ACGAGACC	-0.00263
CCTCGTAA	0.179
CCATGTTA	0.1
AGCGATAG	-0.186
TAGGCGAA	-0.256
AGGACCTA	0.12
CAGGGCGG	-0.172
AACAACGA	0.00655
GCGGTCAC	0.313
AGGTCACA	0.359
AATGACAA	0.153
CACTCTGG	-0.151
AGCCAATA	0.00338
AAATAGTC	-0.181
GAGAAGGC	-0.135
CGAGGTGA	0.239
CACTCCCC	-0.275
CCATGGGG	0.28
GGAATCTA	-0.121
AACTTGGG	0.0268
GACCGCCA	-0.0676
AAGCTCGC	-0.0489
CGTGAGTA	0.0596

Sequence	PBM E-score
CAACCGCA	0.106
ATGATCTC	-0.0835
CACCACCC	0.186
CGTACTTA	-0.0746
AGCGCTGG	-0.109
AGGCCGAT	-0.144
AATCCATT	0.0141
AACTTCCA	0.092
ATACATCC	-0.135
CAATTTCC	-0.0587
GATGCAGC	-0.161
CAACTAGG	0.0465
ATATTGAG	0.0336
AAGCTAAC	0.146
CTCCCTGA	-0.198
CTACCTGA	0.00976
CACCAAAG	0.0401
ACGGAGAA	-0.179
AGACCCAT	-0.0274
CCGTCTTC	-0.0693
AATTGCCT	-0.0461
GGTGCAGA	-0.182
CACTTTGC	0.0546
CGGGAGCA	-0.281
ATGAACCC	0.15

Sequence	PBM E-score
TATGTCCA	-0.0504
GCAGCAAC	0.0522
CCCGTACA	-0.172
ACGCTTCT	-0.246
CGACTGAC	-0.223
GATAGCTA	-0.298
GTACCAGA	0.214
CAAATATC	0.104
ATTCCCCC	-0.291
ATCTCGTG	-0.0976
TGGTTTAA	0.242
ATACGCAG	-0.3
CACGCCCC	-0.137
ATCACTCC	-0.115
GCCAACAC	-0.121
GAGCTGGA	-0.162
GTGCAGTA	-0.136
CAATCTTC	0.161
AGTAAATA	0.12
AGATAGCG	-0.163
AACGACCG	-0.0501
ATCTCTGC	-0.101
AGGTTGTC	0.242
GTTTGCAA	0.0866
CGACGCTC	0.0879

Sequence	PBM E-score
ACTCAAGA	0.135
CTGCACAC	-0.13
ATATTTTC	0.195
ACGCTGTC	-0.107
AAGGCCTC	0.0146
CTACGAGC	-0.204
CCTAGTCG	-0.248
CTGGGCCC	-0.0741
CGATTCGA	0.166
CCGCGCAA	-0.0554
AATGCCCC	-0.0353
ACACTAGT	0.00423
ATTTACTG	0.13
ATGGCTTG	-0.169
TAACGCTA	0.00603
AACCTGTG	0.207
AATTGGGA	0.0996
AACAATGT	0.115
AAGTTGGG	-0.112
CAGGGAGA	-0.221
ACGACGGA	-0.113
CTCCGAGA	-0.0293
TACCTCTA	0.347
ATTTCGCG	0.104
GGAAACTA	-0.153

Sequence	PBM E-score
AACTCTGC	-0.0707
CGAGGCAG	-0.0981
ATTTCAAC	0.0908
TCATGCGA	-0.00209
GAAAACTC	-0.0414
ATTCGTTC	0.144
CTGAGATC	-0.24
AGAAGGAC	-0.176
ATCTGAGC	-0.0293
GTTCATTA	0.0845
GTTTAGAA	0.0417
GGCCCGCC	-0.259
CAGTCTTA	-0.136
CATTGCTC	-0.189
GAAAATAA	0.204
GAGACCCA	0.126
ACCAGGTG	-0.0712
AACTAAGC	0.0568
CTGGCGAA	-0.176
CCACAGGG	0.1
AAGTCGAG	-0.0695
AGAAGGTA	0.286
AGTTGAGC	-0.032
CCTATGAC	0.26
CGTGGTCC	0.0197

Sequence	PBM E-score
AAAATGCT	0.00547
ATCAGTGA	0.0209
GGAGTTAA	0.029
CGATGTCC	0.0405
CATTACTA	-0.0295
GAGGGGGC	-0.319
ATACGCCC	-0.2
ATCCACGA	0.156
CAAGCAGC	-0.0757
AGGTTCTA	0.0524
CTGACACA	-0.111
CACTGTAA	0.0817
ATGTTCAG	-0.0491
ACAAGAGT	0.0378
ATAAGAAG	0.15
CGCGTCTA	-0.228
AGCAACAG	-0.195
GCTCCGGA	-0.169
ACGGTCTA	-0.0875
